Several values for one entry are separate records, joined by “and”; a condition that tells them apart may be missing. Equal entries are not always repeated. The full ranking holds about 5,300 compounds; the median of “PER2::LUC luminescence relative to vehicle control” is about 0.96, and the highest 2% start at about 1.3. This is one part of the list.
System: mPer2Luc MEF
Experiment: PER2::LUC luminescence relative to vehicle control (fold of vehicle); higher = higher PER2::LUC reporter signal
Conditions: 10 µM
Outline: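 Compounds from commercial libraries were added at 10 μM to 384-well plates seeded 48 h earlier with ~3000 mPer2Luc mouse embryonic fibroblasts per well. The cells were kept in DMEM with 10% FBS at 37 °C and 5% CO2. Luminescence was read with ONE-Glo 24 h and 30 h after treatment, then an alamarBlue viability assay was run. Values are PER2::LUC luminescence relative to vehicle control, as fold change.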

Compound | PER2::LUC luminescence (time after treatment 24 h) | PER2::LUC luminescence (time after treatment 30 h)
O=C(O)c1cc(=O)c2c(OCC(O)COc3cccc4oc(C(=O)O)cc(=O)c34)cccc2o1 | 1.03 and 0.961 | 0.897 and 0.939
O=c1c(O)c(-c2ccccc2)oc2cc(O)cc(O)c12 | 1.24 | 1.34
CCN1CCCC1CNC(=O)c1cc(S(N)(=O)=O)ccc1OC (racemic) | 0.97 | 0.912
CCOc1ccc(Cc2cc([C@@H]3O[C@H](CO)[C@@H](O)[C@H](O)[C@H]3O)ccc2Cl)cc1 | 0.978 and 1.06 | 1.04 and 0.951
COc1cccc2c1C(=O)c1c(O)c3c(c(O)c1C2=O)C[C@@](O)(/C(CO)=N/NC(=O)CCCCCN1C(=O)C=CC1=O)C[C@@H]3O[C@H]1C[C@H](N)[C@H](O)[C@H](C)O1 | 0.416 | 0.357
COC1=C(OC)C(=O)c2ccccc2C1=O | 1.09 | 0.813
CCC(C)CNCC(=O)N1CCc2sccc2C1COc1cccc(C)c1 (stereo not given) | 0.647 | 0.499
Cc1c(O)cccc1C(=O)N[C@@H](CSc1ccccc1)[C@H](O)CN1C[C@H]2CCCC[C@H]2C[C@H]1C(=O)NC(C)(C)C | 0.811 | 0.8
C[C@H]1CCN(C(=O)CC#N)C[C@H]1N(C)c1ncnc2[nH]ccc12 | 1 | 1.02
CN(C)CCC(c1ccccc1)c1ccccn1 (stereo not given) | 0.784 | 1.05
Cc1cccc(Nc2nc(-c3ccncc3)cs2)c1 | 0.673 | 0.663
C=CC(C1=CC(=O)C(OC)=CC1=O)c1ccc(O)cc1 (stereo not given) | 0.816 | 0.863
Nc1ccn([C@@H]2O[C@H](CO)[C@@H](O)[C@H]2O)c(=O)n1 | 0.993 | 0.904
O=C(O)/C=C/C=C/c1ccc2c(c1)OCO2 | 1.07 | 1.03
CC(C)NCCCn1c(Sc2cc3c(cc2I)OCO3)nc2c(N)ncnc21 | 0.108 | 0.054
CC(C)CCC[C@@H](C)[C@H]1CC[C@H]2[C@@H]3CC=C4C[C@@H](O)CC[C@]4(C)[C@H]3CC[C@]12C | 0.926 | 0.923
Nc1nccc2c1ncn2[C@@H]1O[C@H](CO)[C@@H](O)[C@H]1O | 0.924 | 0.982
N[C@@H](Cc1ccc(F)cc1)C(=O)O | 0.979 | 0.832
COc1ccc(-n2nc(CCC(=O)N(C)O)cc2-c2ccc(Cl)cc2)cc1 | 0.853 | 0.925
O=C(O)[C@@H]1C[C@H](CP(=O)(O)O)CCN1 | 1.03 | 0.992
O=P(O)(O)C(O)(Cc1cccnc1)P(=O)(O)O | 0.689 and 0.717 | 0.977 and 0.717
CCCCC#Cc1nc(NC)c2ncn([C@@H]3O[C@H](CO)[C@@H](O)[C@H]3O)c2n1 | 0.992 | 1.01

Compound | PER2::LUC luminescence (time after treatment 24 h) | PER2::LUC luminescence (time after treatment 30 h)
O=C(O)c1cc(O)c(O)c(O)c1 | 0.88 | 1.04
CCN(CC)C(=O)N1CCN(C)CC1 | 1.12 | 0.953
CC(C)(C)C(O)/C=C/c1ccc2c(c1)OCO2 (stereo not given) | 0.981 | 0.941
C[C@H]1CC[C@@H](C(C)(C)O)CC2=C1CC[C@@H]2C | 1.46 | 1.05
CC[C@]1(O)C[C@@H]2CN(CCc3c([nH]c4ccccc34)[C@@](C(=O)OC)(c3cc4c(cc3OC)N(C)[C@H]3[C@@](O)(C(=O)OC)[C@H](OC(C)=O)[C@]5(CC)C=CCN6CC[C@]43[C@@H]65)C2)C1 | 0.0879 | 0.136
CC(CCc1ccc(O)cc1)NCC(O)c1ccc(O)cc1 (stereo not given) | 0.808 | 0.821
CC(=O)[C@H]1CC[C@H]2[C@@H]3CC=C4C[C@@H](OC(=O)CCC(=O)O)CC[C@]4(C)[C@H]3CC[C@]12C | 1.01 | 0.948
COc1cc2c(cc1OC)CN(CCc1ccc(NC(=O)c3cccc4c(=O)c5cccc(OC)c5[nH]c34)cc1)CC2 | 0.792 | 0.772
CCCCC(CC)COC(=O)c1ccccc1O (stereo not given) | 1.07 | 1.63
Cc1c(C)c2c(c(C)c1O)CC[C@@](C)(CCC[C@H](C)CCC[C@H](C)CCCC(C)C)O2 | 1.05 | 0.9
CCN(CCCc1ccccc1)CCCc1ccccc1 | 0.946 | 0.739
COc1cc2c(cc1OC)[C@H]1[C@@H](C)c3ccc(OC)c(OC)c3CN1CC2 | 0.954 | 0.973
NC(=O)NO | 0.956 | 0.989
Clc1ccccc1C(c1ccccc1)(c1ccccc1)n1ccnc1 | 0.786 | 0.863
Clc1ccc(COC(Cn2ccnc2)c2ccc(Cl)cc2Cl)cc1 (stereo not given) | 1.26 and 1.03 | 1.35 and 1.25
C[C@H](CCC(=O)NCC(=O)O)[C@H]1CC[C@H]2[C@@H]3[C@H](O)C[C@@H]4C[C@H](O)CC[C@]4(C)[C@H]3C[C@H](O)[C@]12C | 1.05 and 0.939 | 0.96 and 0.907
COc1cc(CC(=O)O)ccc1O | 0.99 | 0.874
Cc1cc(CC(C)CC(C)(C)C)n(O)c(=O)c1 (stereo not given) | 0.536 | 0.588
COc1c(OC)c2occc2c2oc(=O)ccc12 | 0.851 | 0.811
CC(C)=CCC/C(C)=C/COc1ccc2ccc(=O)oc2c1 | 0.946 | 1.02
CC(C)(C)c1ccc(S(=O)(=O)NCc2ccc(C(=O)Nc3cccnc3)cc2)cc1 | 0.867 | 0.466
CO[C@H]1C(=O)[C@]2(C)[C@@H](OC)C[C@H]3OC[C@@]3(OC(C)=O)[C@H]2[C@H](OC(=O)c2ccccc2)[C@]2(O)C[C@H](OC(=O)[C@H](O)[C@@H](NC(=O)OC(C)(C)C)c3ccccc3)C(C)=C1C2(C)C | 0.507 and 0.433 | 0.471 and 0.433

Compound | PER2::LUC luminescence (time after treatment 24 h) | PER2::LUC luminescence (time after treatment 30 h)
CCCC(C(=O)OCCN(CC)CC)(c1ccccc1)c1ccccc1 | 0.938 and 0.777 and 0.861 | 0.911 and 0.962 and 0.855
Cc1ccc(CN2CCNCC2)cc1NC(=O)CNc1ccc(F)c(F)c1 | 0.875 | 0.886
CCC1=C[C@H]2CN(C1)Cc1c([nH]c3ccccc13)[C@@](C(=O)OC)(c1cc3c(cc1OC)N(C)[C@H]1[C@@](O)(C(=O)OC)[C@H](OC(C)=O)[C@]4(CC)C=CCN5CC[C@]31[C@@H]54)C2 | 0.279 | 0.324
CN1CCC[C@H]1c1cccnc1 | 1.03 and 1.21 | 0.975 and 1.06
O=S(=O)(O)CCSSCCS(=O)(=O)O | 1.14 | 1.2
C[C@]12CC[C@H](O)CC1=CC[C@@H]1[C@@H]2CC[C@]2(C)C(n3cnc4ccccc43)=CC[C@@H]12 | 1.08 and 1.07 | 0.969 and 1.07
NC[C@@H]1CC[C@@H](N)[C@@H](O[C@H]2[C@H](O)[C@@H](O[C@H]3O[C@H](CO)[C@@H](O)[C@H](N)[C@H]3O)[C@H](N)C[C@@H]2N)O1 | 1.04 | 1.07
NC(=O)c1cccc(NC(=O)/C=C/c2c[nH]c3ccccc23)c1 | 1.08 | 1.06
CCCCCC#CCC#CCC#CCC#CCCCC(=O)O | 1.04 | 1.02
O=C(O)c1cc(=O)c2cc(Cl)ccc2[nH]1 | 0.977 | 0.883
NC(=O)C1=CN(C2OC(COP(=O)(O)OP(=O)(O)OC[C@H]3O[C@@H](n4cnc5c(N)ncnc54)C(OP(=O)(O)O)[C@H]3O)C(O)C2O)C=CC1 (stereo not given in full) | 0.834 | 0.999
Nc1nc(NC2CC2)cc(-c2cccc(Cl)c2Cl)n1 | 0.935 | 1.02
CC(O)C(O)[C@H]1CNc2nc(N)[nH]c(=O)c2N1 (stereo not given in full) | 1.17 | 1.11
CNS(=O)(=O)CCc1ccc2[nH]cc(C3CCN(C)CC3)c2c1 | 0.95 and 1.11 | 1 and 1.24
CC1=C(/C=C/C(C)=C/C=C/C(C)=C/C=C/C=C(C)/C=C/C=C(C)/C=C/C2=C(C)C(=O)[C@@H](O)CC2(C)C)C(C)(C)C[C@H](O)C1=O | 1.21 | 1.07
CC(=O)Oc1ccccc1C(=O)O | 1.06 and 1.18 | 1.01 and 0.996
O=C(O)[C@H]1NCCC[C@H]1C(=O)O (racemic) | 1.1 | 1.08
O=c1cc(-c2ccccc2)oc2cc(O)ccc12 | 1.48 | 1.84
CSCC1CN(/N=C/c2ccc([N+](=O)[O-])o2)C(=O)O1 (stereo not given) | 1.06 | 0.942
N=C(N)NS(=O)(=O)c1ccc(N)cc1 | 0.999 | 1.04
CN(C)c1cc(CNCC(C)(C)C)c(O)c2c1C[C@H]1C[C@H]3[C@H](N(C)C)C(O)=C(C(N)=O)C(=O)[C@@]3(O)C(O)=C1C2=O | 1.27 | 1.01
COc1ccc2ccc(=O)oc2c1CC=C(C)C | 0.857 | 0.886

Compound | PER2::LUC luminescence (time after treatment 24 h) | PER2::LUC luminescence (time after treatment 30 h)
O=C(Nc1nc2cccc(-c3ccc(CN4CCS(=O)(=O)CC4)cc3)n2n1)C1CC1 | 0.727 and 0.501 | 0.928 and 0.862
COc1cc2c3cc1Oc1cc(ccc1O)C[C@@H]1c4c(cc(OC)c(O)c4Oc4ccc(cc4)C[C@@H]3N(C)CC2)CC[N+]1(C)C | 1.05 and 0.925 | 1.02 and 0.942
CC1(C)[C@H](C(=O)O)N2C(=O)C[C@H]2S1(=O)=O | 1.03 | 0.651
OC(c1ccccc1)(c1ccccc1)C12CC[N+](CCOCc3ccccc3)(CC1)CC2 | 1.03 | 0.981
CN1CCc2cc(Cl)c(O)cc2[C@@H](c2ccccc2)C1 | 1.07 and 0.999 | 0.948 and 0.93
Nc1ccc(N2C(=O)c3ccccc3C2=O)c(Cl)c1 | 1.1 | 0.958
Cc1ncc(CO)c(CO)c1O | 0.974 | 0.821
O=C(O)c1ccc(-c2c[nH]c3ncc(-c4ccccc4)cc23)cc1C1CCCC1 | 0.972 | 1.01
CCc1c(C)[nH]c2c1C(=O)C(CN1CCOCC1)CC2 (stereo not given) | 1.03 | 1.05
Cc1ccc(NCCCc2ccccc2)c(N)c1 | 0.926 | 1.07
NC(=O)CNCCC(c1ccccc1)c1ccccc1 | 1.12 | 1.07
C=CC(=O)Nc1cc(Nc2nccc(-c3cn(C)c4ccccc34)n2)c(OC)cc1N(C)CCN(C)C | 0.054 | 0.012
C#Cc1cccc(Nc2ncnc3cc4c(cc23)OCCOCCOCCO4)c1 | 0.923 | 0.882
O=[N+]([O-])c1cncn1CCN1CCOCC1 | 1.08 | 1.05
CCOC(=O)c1cc(OC)c(OC)cc1NC(=O)c1cc(OC)c(OC)c(OC)c1 | 1.08 | 1.16
CC1=C(C(=O)O)N2C(=O)[C@@H](NC(=O)[C@H](N)C3=CCC=CC3)[C@H]2SC1 | 1.09 | 0.999
N#Cc1cccc2sc(C(=O)N=C(N)N)cc12 | 1.02 | 1.08
N[C@@H](CCC(=O)N[C@@H](CS)C(=O)NCC(=O)O)C(=O)O | 1 | 1.05
COc1ccc2c(c1)C[C@H](C(=O)Nc1ccc(-c3cn[nH]c3)cc1OCCN(C)C)CO2 | 0.472 | 0.452

Reference: the supplement of paper PMC9334596
